Experimental data reported in patent US7414110B2, “Human calcium channel compositions and methods” (Merck & Co., Inc., priority 1990, dated 2008).

Biological target: human neuronal calcium channel α1D, α2 and β1 subunits (Homo sapiens, UniProt Q01668, S1346F/Y1433H)
Format: cell-based
Set-up: expressed in transfected cells; host or cells: Xenopus laevis oöcytes injected with in vitro transcripts

COC(=O)C1=C(C)NC(C)=C([N+](=O)[O-])C1c1ccccc1C(F)(F)F (stereo not drawn) [Bay K 8644]
magnitude of the inward barium currents: increased the magnitude of the currents
shift in current activation: hyperpolarizing shift
tail currents upon repolarization: prolonged the tail currents
